Laboratory results reported in a collection of fitness landscapes (doi:10.1126/science.1257360).
This is one part of the list.

B1: PhoQ; a variant is named by its letters at X, in order, P23837 (parent)
chain: MKKLLRLFFPLSLRVRFLLATAAVVLVLSLAYGMVALIGYSVSFDKTTFRLLRGESNLFYTLAKWENNKLHVELPENIDKQSPTMTLIYDENGQLLWAQRDVPWLMKMIQPDWLKSNGFHEIEADVNDTSLLLSGDHSIQQQLQEVREDDDDAEMTHSVAVNVYPATSRMPKLTIVVVDTIPVELKSSYMVWSWFIYVLSANLLLVIPLLWVAAWWSLRPIEALAKEVRELEEHNRELLNPATTRELTSLVRNLNRLLKSERERYDKYRTTLTDLTHSLKTPLXXLQXXLRSLRSEKMSVSDAEPVMLEQISRISQQIGYYLHRASMRGGTLLSRELHPVAPLLDNLTSALNKVYQRKGVNISLDISPEISFVGEQNDFVEVMGNVLDNACKYCLEFVEISARQTDEHLYIVVEDDGPGIPLSKREVIFDRGQRVDTLRPGQGVGLAVAREITEQYEGKIVAGESMLGGARMEVIFGRQHSAPKDE

Variants of: B1
Assay: enrichment ratio after two sorts for PhoP signalling (ratio (wild type AVST 3.29)); higher = more functional
Settings: with PhoP (E. coli)

Variant	enrichment ratio
SVIK	≤ 0.25
LSLY	≤ 0.25
NFVM	≤ 0.25
SISS	10
EYHK	≤ 0.25
PVTK	≤ 0.25
KRDI	≤ 0.25
FESG	≤ 0.25
YQSV	≤ 0.25
LWKS	≤ 0.25
NTPQ	≤ 0.25
YRVA	≤ 0.25
NCCF	≤ 0.25
EHCW	≤ 0.25
TNMG	≤ 0.25
QMNA	3.16
NMME	≤ 0.25
WAFG	≤ 0.25
AWFI	≤ 0.25
AKAQ	7.28
WYRR	≤ 0.25
RLGK	≤ 0.25
LQNY	≤ 0.25
QVMA	≤ 0.25
KEQM	≤ 0.25

Variant	enrichment ratio
KQYH	≤ 0.25
TIHW	≤ 0.25
NIWP	≤ 0.25
ATFT	≤ 0.25
LLTW	≤ 0.25
VKLR	≤ 0.25
NPHH	≤ 0.25
TYHD	≤ 0.25
QKYR	≤ 0.25
YPVS	≤ 0.25
NIGF	≤ 0.25
THVP	≤ 0.25
WTST	≤ 0.25
IKCC	≤ 0.25
DNAC	≤ 0.25
YKSR	≤ 0.25
FKSD	≤ 0.25
NLKS	≤ 0.25
FWEK	≤ 0.25
VAWS	≤ 0.25
LSII	≤ 0.25
RAFH	≤ 0.25
AGVY	18.3
QQQY	≤ 0.25
HGMS	≤ 0.25

Variant	enrichment ratio
IPKR	≤ 0.25
PIYD	≤ 0.25
YPMD	≤ 0.25
WAWI	≤ 0.25
YCSM	≤ 0.25
GFNT	≤ 0.25
RVNI	≤ 0.25
IRHV	≤ 0.25
GKSQ	≤ 0.25
ICCP	≤ 0.25
WPNQ	≤ 0.25
NRRM	≤ 0.25
LAYV	2.7
EIKN	≤ 0.25
HCFS	≤ 0.25
QTRF	≤ 0.25
YNYE	≤ 0.25
NPWR	≤ 0.25
DIFI	≤ 0.25
RRYS	≤ 0.25
WGFR	≤ 0.25
HFTS	≤ 0.25
IKFV	≤ 0.25
RKNQ	≤ 0.25
KFAM	≤ 0.25

Variant	enrichment ratio
PFGN	≤ 0.25
EVVH	≤ 0.25
SNRL	≤ 0.25
IKLY	≤ 0.25
NFMD	≤ 0.25
MCFL	7.86
SHRC	≤ 0.25
VKFW	≤ 0.25
ENDM	≤ 0.25
KGLV	≤ 0.25
HYYE	≤ 0.25
NYNR	≤ 0.25
PVSI	≤ 0.25
WEAY	≤ 0.25
TYAE	≤ 0.25
QQAA	≤ 0.25
AFRH	≤ 0.25
ANAF	5
RTLL	≤ 0.25
RDFA	≤ 0.25
YNWC	≤ 0.25
TKAT	14.5
LNCD	≤ 0.25
RMNM	≤ 0.25
VHVP	≤ 0.25

Variant	enrichment ratio
NEGK	≤ 0.25
DKVV	≤ 0.25
ILHG	≤ 0.25
REES	≤ 0.25
DSYG	≤ 0.25
ANTQ	6.43
TWRR	≤ 0.25
FKGN	≤ 0.25
QCSL	7.28
LHCE	≤ 0.25
HAAF	≤ 0.25
PKCE	≤ 0.25
VILG	0.779
ESFC	2.33
VRHQ	≤ 0.25
QQID	≤ 0.25
DQRC	≤ 0.25
KTAK	≤ 0.25
LHVI	≤ 0.25
MEAG	≤ 0.25
IPMA	≤ 0.25
EVGY	≤ 0.25
FCIH	≤ 0.25
PEYT	≤ 0.25
EYGD	≤ 0.25

Variant	enrichment ratio
MFSL	≤ 0.25
WPQF	≤ 0.25
QHYY	≤ 0.25
MRPI	≤ 0.25
SQVA	4.56
DYNM	≤ 0.25
TNIE	≤ 0.25
SWDH	≤ 0.25
DLML	≤ 0.25
PGVS	≤ 0.25
SVRS	≤ 0.25
SAKD	≤ 0.25
AIVW	≤ 0.25
MGAL	15.5
VFDN	≤ 0.25
TKPY	≤ 0.25
KSCH	≤ 0.25
HENW	≤ 0.25
TMIR	≤ 0.25
QCLF	≤ 0.25
HHSG	≤ 0.25
SLMG	4.54
SEVW	≤ 0.25
MSMQ	5.89
VLCG	≤ 0.25

Variant	enrichment ratio
FEYS	≤ 0.25
KNYQ	≤ 0.25
FNDI	≤ 0.25
LYHY	≤ 0.25
HMRF	≤ 0.25
PWPF	≤ 0.25
PMHD	≤ 0.25
HEPC	≤ 0.25
EHHG	≤ 0.25
LSPS	≤ 0.25
YPID	≤ 0.25
FEET	≤ 0.25
PSDT	≤ 0.25
EYPA	≤ 0.25
LGEV	≤ 0.25
LHMH	≤ 0.25
VPAR	≤ 0.25
WNHS	≤ 0.25
MFGI	≤ 0.25
SFLL	3.56
RYSE	≤ 0.25
EYRS	≤ 0.25
EKWV	≤ 0.25
GVPW	≤ 0.25
TLVG	≤ 0.25

Variant	enrichment ratio
VSDS	≤ 0.25
SMGN	2.13
DHRQ	≤ 0.25
YHVA	≤ 0.25
LTGM	≤ 0.25
HWPE	≤ 0.25
WHCD	≤ 0.25
TWMQ	≤ 0.25
MPLQ	≤ 0.25
IREV	≤ 0.25
YSWP	≤ 0.25
MYYT	≤ 0.25
QLCV	≤ 0.25
TALM	15.3
VEPI	≤ 0.25
TWYT	≤ 0.25
LDQA	≤ 0.25
LSVP	≤ 0.25
EVFW	≤ 0.25
TWAT	≤ 0.25
